PubChem BioAssay AID504332 (National Center for Advancing Translational Sciences (NCATS), 2011)
Hit rate of the full screen: of about 350,000 compounds, about 31,000 (8.9%) were called active. The shares of active, inactive and inconclusive entries below differ from those in the screen. The call rests on the fitted dose curve; in most records, active means well fitted inhibition curve with a large enough effect; inconclusive means small, poorly fitted or top-dose-only effect; inactive means no such curve, though single readings can be large or run the other way. Where the call is inconclusive, the potency comes from a doubtful curve fit.
Further: nearly all actives have a fitted effect of over 75% in size.
On the % scale 0 is the no-effect control and ±100 the full control effect; potency means the concentration at half of the fitted maximal effect; tags describe the fitted curve by direction and shape.

The compounds below were run against Histone-lysine N-methyltransferase EHMT2 (Homo sapiens) (UniProt Q96KQ7) (assay: qHTS Assay for Inhibitors of Histone Lysine Methyltransferase G9a). Conditions: G9a H3K9 monomethylation, AlphaScreen, 2 h; activity, negative = inhibition: at 59 µM (top of the series) unless noted.
Sequence of UniProt Q96KQ7 (Q96KQ7 whole entry, looked up): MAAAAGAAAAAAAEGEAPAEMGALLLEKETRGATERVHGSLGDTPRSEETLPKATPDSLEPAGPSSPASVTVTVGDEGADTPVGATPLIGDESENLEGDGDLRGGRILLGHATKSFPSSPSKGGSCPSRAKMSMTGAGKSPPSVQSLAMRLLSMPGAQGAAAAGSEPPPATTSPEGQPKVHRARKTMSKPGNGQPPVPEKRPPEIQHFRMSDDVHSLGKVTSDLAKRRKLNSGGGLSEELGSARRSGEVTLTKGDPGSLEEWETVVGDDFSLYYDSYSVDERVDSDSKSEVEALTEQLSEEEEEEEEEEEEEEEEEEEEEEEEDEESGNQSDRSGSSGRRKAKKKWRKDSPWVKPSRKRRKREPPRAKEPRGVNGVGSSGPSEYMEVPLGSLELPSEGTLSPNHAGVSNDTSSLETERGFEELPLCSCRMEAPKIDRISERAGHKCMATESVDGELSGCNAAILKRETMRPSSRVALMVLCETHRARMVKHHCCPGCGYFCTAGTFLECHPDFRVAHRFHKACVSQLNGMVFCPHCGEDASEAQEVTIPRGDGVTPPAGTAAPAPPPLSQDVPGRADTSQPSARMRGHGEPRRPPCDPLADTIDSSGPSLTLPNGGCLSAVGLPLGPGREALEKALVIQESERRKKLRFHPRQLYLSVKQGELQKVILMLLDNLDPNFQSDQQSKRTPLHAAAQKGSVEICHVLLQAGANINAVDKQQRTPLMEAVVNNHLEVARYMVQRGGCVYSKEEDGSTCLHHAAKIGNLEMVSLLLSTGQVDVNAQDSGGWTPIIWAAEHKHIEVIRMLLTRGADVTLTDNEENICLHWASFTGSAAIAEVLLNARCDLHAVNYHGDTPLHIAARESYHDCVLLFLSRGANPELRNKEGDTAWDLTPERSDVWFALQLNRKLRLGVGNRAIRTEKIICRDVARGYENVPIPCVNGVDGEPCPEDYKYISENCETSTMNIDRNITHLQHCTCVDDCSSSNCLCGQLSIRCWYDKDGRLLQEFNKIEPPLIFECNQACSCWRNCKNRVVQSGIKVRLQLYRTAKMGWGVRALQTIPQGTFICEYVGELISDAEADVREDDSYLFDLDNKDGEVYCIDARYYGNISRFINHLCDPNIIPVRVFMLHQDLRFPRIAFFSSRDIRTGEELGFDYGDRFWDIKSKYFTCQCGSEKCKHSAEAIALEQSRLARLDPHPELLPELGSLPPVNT
Summary of the method: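 Signal arises when biotinylated H3K9 peptide, once monomethylated, bridges streptavidin donor and antibody-captured acceptor beads. Enzyme at 20 nM was preincubated 15 min with test compounds; peptide 500 nM and SAM 20 uM then reacted for 2 h.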
In the case of `Cc1ccc(NC(=S)NC(=O)C2CC2)cc1Cl`, the Potency was inconclusive: 79.4 µM [inhibitor, single point].
For `O=C(COC(=O)c1cn(-c2ccccc2)nc1-c1ccccc1)Nc1ncc(Cl)cc1Cl`, the activity, negative = inhibition was inactive: -1.08% [at 12.7 µM].
`CCOc1ccc2oc(C(=O)NCC(c3ccco3)N(C)C)c(C)c2c1` (stereo unspecified) was tested, and the Potency was inconclusive: 50.1 µM [inhibitor, partial curve, poor fit].
For `O=C(C#Cc1ccccc1)NCc1ccccc1F`, the Potency was inconclusive: 89.1 µM [inhibitor, single point].
With `CCOC(=O)N/N=C/c1ccc(N(CC)CC)cc1O` the Potency was inconclusive: 39.8 µM [inhibitor, single point].
In the case of `O=C1c2ccccc2C(=O)c2c1cccc2-n1nnc2ccccc21`, the Potency was inconclusive: 3.55 µM [inhibitor, single point].
For `OC(COCc1ccccc1)CN1CCCC1` (stereo unspecified), the Potency was inconclusive: 79.4 µM [inhibitor, single point].
For `N#Cc1ccc(CN2CCN(C(=O)CNC(=O)Cc3cccc4ccccc34)CC2)cc1`, the Potency was active: 50.1 µM.
In the case of `CCOC(=O)c1c(C)noc1CP(=O)(c1ccccc1)c1ccccc1`, the Potency was “inactive”.
For `CCOc1cccc(C2c3c(oc4ccccc4c3=O)C(=O)N2c2nc(C)c(C(=O)OC)s2)c1` (stereo unspecified), the Potency was “inactive”.
`COc1cccc(N2CCN(c3nc4ccc(C(=O)c5ccccc5)cc4n4c(C)nnc34)CC2)c1` was tested, and the Potency was “inactive”.
`O=C1c2ccccc2C(=O)C1c1ccccn1` was tested, and the Potency was “inactive”.
`NS(=O)(=O)c1cccc(NC(=O)CCc2ccc(S(=O)(=O)N3CCOCC3)cc2)c1` was tested, and the Potency was inconclusive: 89.1 µM [inhibitor, partial curve, poor fit].
In the case of `Cc1nc(NCc2ccco2)c2c(C)c(C)sc2n1`, the Potency was active: 8.91 µM.
With `Cc1ccc(NC(=O)c2cc(C)n(-c3ccccc3)c2C)cc1` the Potency was inconclusive: 20 µM [inhibitor, partial curve, poor fit].
For `CCCCC(=O)NC(=S)Nc1cccc(NC(=O)c2ccco2)c1`, the Potency was inconclusive: 22.4 µM [inhibitor, single point].
For `Nn1c(SCc2cn3cc(Cl)ccc3n2)nnc1-c1ccncc1`, the Potency was active: 44.7 µM.
In the case of `CCc1ccccc1NC(=O)CSc1nnc([C@@H]2CCCN2C(=O)OC(C)(C)C)o1`, the Potency was inconclusive: 89.1 µM [inhibitor, partial curve, poor fit].
With `Cc1ccc(C(=O)OCC(=O)Nc2ccc(N3CCOCC3)cc2)cc1` the Potency was inconclusive: 56.2 µM [inhibitor, partial curve].
`COc1ccccc1C(=O)Nc1ccnn1C1CCN(Cc2ccc3nonc3c2)CC1` was tested, and the Potency was “inactive”.
With `CCOc1cc(C2c3c(oc4ccccc4c3=O)C(=O)N2Cc2ccc3c(c2)OCO3)ccc1O` (stereo unspecified) the Potency was “inactive”.
With `O=C(Nc1cc([N+](=O)[O-])ccc1F)c1ccc2c(c1)OCCO2` the Potency was “inactive”.
`O=C1C(Cl)=C(NCc2cccnc2)C(=O)c2ccccc21` was tested, and the Potency was inconclusive: 12.6 µM [inhibitor, partial curve, poor fit].
In the case of `O=C(CSCc1ccc(F)cc1)Nc1ccc(F)cc1`, the Potency was “inactive”.
For `O=[N+]([O-])c1ccc2nc(-c3ccccn3)[nH]c2c1`, the Potency was “inactive”.
For `Cc1[nH]c2ccccc2c1Cc1nnc(SCC(N)=O)o1`, the Potency was “inactive”.
With `Cc1n[nH]c(=S)n1/N=C/c1ccc(OCc2ccc(Cl)cc2)cc1` the activity, negative = inhibition was inconclusive: -71.8% [inhibitor].
With `CN(C)c1ccc(NC(=O)c2ccc(Cn3cc([N+](=O)[O-])cn3)cc2)cc1` the Potency was active: 14.1 µM.
With `CCC(=O)Oc1ccc(-c2nc(-c3cccnc3)no2)cc1` the Potency was inconclusive: 89.1 µM [inhibitor, single point].
With `CCN(CC)C(=O)CSc1nc2cc3c(cc2c(=O)n1Cc1ccc(C(=O)NCCc2ccc(OC)c(OC)c2)cc1)OCO3` the Potency was “inactive”.
With `CCCCOCCCNC(=O)c1ccc(NC(C)=O)cc1` the Potency was inconclusive: 89.1 µM [inhibitor, single point].
With `Cc1ccc(NC(=O)CCS(=O)(=O)c2ccc3c(c2)NC(=O)C(C)S3)cc1Cl` (stereo unspecified) the Potency was “inactive”.
For `CCOc1cc(N2CCOCC2)c(OCC)cc1NC(=O)CSc1ncccn1`, the Potency was active: 39.8 µM.
With `Cc1ccc(-c2cc(C(=O)Nc3ccc4c(c3)OCCO4)c3ccccc3n2)cc1` the activity, negative = inhibition was inconclusive: -105% [inhibitor].
With `CC(NC(=O)c1ccccc1)c1nc2ccccc2n1Cc1ccc(Cl)cc1` (stereo unspecified) the Potency was “inactive”.
With `Cc1c(CCC(=O)O)c(=O)oc2c(C)c3occ(-c4ccc(Cl)cc4)c3cc12` the Potency was inconclusive: 50.1 µM [inhibitor, partial curve, poor fit].
With `COc1cc(C(=O)Oc2cc(C)[nH]c(=O)c2[N+](=O)[O-])cc(OC)c1OC` the Potency was inconclusive: 89.1 µM [inhibitor, single point].
In the case of `O=C(CN1CCCCCC1)N1c2ccccc2Sc2ccc(C(F)(F)F)cc21`, the Potency was inconclusive: 39.8 µM [inhibitor, single point].
For `CN(C)c1ccc(NC(=O)COC(=O)c2cc(Cl)ccc2[N+](=O)[O-])cc1`, the Potency was active: 6.31 µM.
For `Cc1ccc(C2=N/C(=C\c3cccs3)C(=O)N2Nc2ccccc2)cc1`, the Potency was inconclusive: 5.01 µM [inhibitor, full curve].
In the case of `Cc1ccc(C)c(N=Cc2cc3c(cc2[N+](=O)[O-])OCO3)c1`, the Potency was inconclusive: 5.62 µM [inhibitor, full curve].
For `CC1CCCCN1C(=O)Nc1cccc(C(F)(F)F)c1` (stereo unspecified), the Potency was inconclusive: 35.5 µM [inhibitor, partial curve, poor fit].
In the case of `O=C(CSc1ccc2nnc(-c3cccnc3)n2n1)NCC1CCCO1` (stereo unspecified), the Potency was inconclusive: 25.1 µM [inhibitor, single point].
For `CCOC(=O)C1CCCN(Cc2ccc(OC)c(OCc3ccccc3)c2)C1` (stereo unspecified), the Potency was active: 44.7 µM.
For `Cc1ccc(Cl)cc1NC(=O)Cn1nc2c(cc1=O)CC(C)CC2` (stereo unspecified), the Potency was “inactive”.
For `COc1ccc(CCNC(=O)CN2CCC(C)CC2)cc1OC`, the Potency was inconclusive: 5.01 µM [inhibitor, partial curve, poor fit].
`CCOc1ccc(NC(=O)CN2C(=O)COc3ccc(S(=O)(=O)Nc4ccccc4)cc32)cc1` was tested, and the Potency was “inactive”.
In the case of `Cc1cc(C(=O)CSc2nncs2)c(C)n1-c1ccc2c(c1)OCO2`, the Potency was inconclusive: 39.8 µM [inhibitor, single point].
`C=CCn1c(O)c(N=NC(=O)CNC(=O)Cc2ccccc2)c2ccccc21` was tested, and the Potency was inconclusive: 89.1 µM [inhibitor, single point].
In the case of `Cc1ccc(N2C(=O)C3C4C=CC(CNC(=S)Nc5cccc(Cl)c5)(O4)C3C2=O)cc1` (stereo unspecified), the Potency was active: 8.91 µM.
For `CCCc1cc(=O)n2[nH]c(-c3cccc(Br)c3)cc2n1`, the Potency was inconclusive: 89.1 µM [inhibitor, single point].
With `CC(C)Cn1c(=O)c2ccccc2n2c(-c3cccc(Cl)c3)nnc12` the Potency was inconclusive: 35.5 µM [inhibitor, partial curve, poor fit].
For `O=C(OC1CCOC1=O)C1CCN(S(=O)(=O)c2ccc(Cl)c(C(F)(F)F)c2)CC1` (stereo unspecified), the Potency was inconclusive: 79.4 µM [inhibitor, partial curve, poor fit].
`Cn1c(NCC2CCCO2)nc2c1c(=O)n(Cc1ccccc1)c(=O)n2C` (stereo unspecified) was tested, and the Potency was inconclusive: 79.4 µM [inhibitor, partial curve, poor fit].
For `O=C(NNc1ncnc2c1cnn2-c1ccccc1)c1cccc(Cl)c1`, the Potency was inconclusive: 11.2 µM [inhibitor, partial curve, poor fit].
For `Cc1ccc(-c2c(C)n([O-])c3c([n+]2=O)CCCC3)cc1`, the Potency was “inactive”.
In the case of `Cc1ccc(-c2cc(C(=O)N/N=C/c3c[nH]c4ccccc34)n[nH]2)o1`, the Potency was inconclusive: 79.4 µM [inhibitor, single point].
For `COc1ccc([N+](=O)[O-])cc1NC(=O)c1ccc(Br)s1`, the Potency was inconclusive: 89.1 µM [inhibitor, single point].
With `COCCNC(=O)C1=C(N)C(C(=O)Nc2ccc(C)c(S(=O)(=O)N3CCCCC3)c2)SC1=Nc1ccc(C)cc1C` (stereo unspecified) the Potency was active: 50.1 µM.
For `COc1ccc(OCC(=O)NCCCNC(=O)COc2ccc(OC)cc2)cc1`, the Potency was inconclusive: 10 µM [inhibitor, partial curve, poor fit].
For `CCOC(=O)Cc1csc(NC(=O)c2ccc(NC(C)=O)cc2)n1`, the Potency was inconclusive: 39.8 µM [inhibitor, single point].
In the case of `CCOC(=O)CN1CCc2c(C)nc3c(-c4ccc(OC)c(OC)c4)cnn3c21`, the activity, negative = inhibition was inconclusive: -79.4% [inhibitor] [at 12.7 µM].
In the case of `O=C(/C=C/c1cccc(C(F)(F)F)c1)N1CCN(c2ccccn2)CC1`, the Potency was “inactive”.
In the case of `CCCOc1ccccc1Cn1c(=O)sc2ccccc21`, the Potency was “inactive”.
For `N=c1n(Cc2ccccc2Cl)c2ccccc2n1CC(O)c1ccco1` (stereo unspecified), the activity, negative = inhibition was inconclusive: -54.9% [inhibitor] [at 102 µM].
`Cn1cnnc1SCC(=O)c1ccc2c(c1)OCCO2` was tested, and the Potency was inconclusive: 25.1 µM [inhibitor, single point].
With `NC(=S)n1[nH]c(-c2ccc([N+](=O)[O-])cc2)c(N=Nc2cccc(Cl)c2)c1=O` the Potency was active: 35.5 µM.
With `Cc1ccnc(NC(c2ccccc2F)c2ccc3cccnc3c2O)c1` (stereo unspecified) the Potency was inconclusive: 15.8 µM [inhibitor, partial curve, poor fit].
For `NCCCCCC(=O)N/N=C/c1coc2ccccc2c1=O`, the Potency was inconclusive: 79.4 µM [inhibitor, single point].
With `OC(Cn1ccnc1)c1ccc(Cl)cc1Cl` (stereo unspecified) the Potency was inconclusive: 89.1 µM [inhibitor, partial curve, poor fit].
For `CCOC(=O)c1[nH]c(C)c(C(=O)NCCc2ccc(OC)cc2)c1C`, the Potency was inconclusive: 89.1 µM [inhibitor, partial curve, poor fit].
